These results are taken from the supplement of paper PMC9588766.

Structures are written as SMILES. Structures can show the parent of a compound that is named as a salt. The full ranking holds about 1,900 compounds; the median of “cell viability of compound + 1 nM pemigatinib relative to pemigatinib-only (DMSO) wells” is about 0.95, and the lowest 2% start at about 0.22. The list shows a part of the results.

The assay has as its system PDC-DUC18828. Briefly: cell viability of compound + 1 nM pemigatinib relative to pemigatinib-only (DMSO) wells (fraction); PDC-DUC18828 is a patient-derived cholangiocarcinoma cell line; higher = less growth inhibition. The settings on record: first compound 1 µM; pemigatinib concentration 1 nM; 72 h. How it is done:
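Selleck Bioactive library screen in the patient-derived FGFR2 fusion-positive ICC cell line PDC-DUC18828 (500 cells/well). Each compound was tested at 1 uM with 1 nM pemigatinib, in triplicate, for 72 h. Viability was read by CellTiter-Glo and normalised to plate DMSO controls. Value is the paper's averaged normalised viability.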
For the compound `CCCN(CCc1cccs1)[C@H]1CCc2c(O)cccc2C1` [Rotigotine] + CCN1C(=O)N(c2c(F)c(OC)cc(OC)c2F)Cc2cnc3[nH]c(CN4CCOCC4)cc3c21 [pemigatinib], the cell viability was 1.02.
The same measure for `Clc1ccc(COC(Cn2ccnc2)c2ccc(Cl)cc2Cl)c(Cl)c1` (centres undefined) [Miconazole] + CCN1C(=O)N(c2c(F)c(OC)cc(OC)c2F)Cc2cnc3[nH]c(CN4CCOCC4)cc3c21 [pemigatinib]: 0.908.
As for `Clc1ccc(COC(Cn2ccnc2)c2ccc(Cl)cc2Cl)c(Cl)c1` (centres undefined) [Miconazole Nitrate] + CCN1C(=O)N(c2c(F)c(OC)cc(OC)c2F)Cc2cnc3[nH]c(CN4CCOCC4)cc3c21 [pemigatinib], the cell viability was 0.883.
As for `Cc1cc(=O)n(-c2ccccc2)n1C` [Antipyrine] + CCN1C(=O)N(c2c(F)c(OC)cc(OC)c2F)Cc2cnc3[nH]c(CN4CCOCC4)cc3c21 [pemigatinib], the cell viability was 0.916.
For `CC1CCc2c(N3CCC(O)CC3)c(F)cc3c(=O)c(C(=O)O)cn1c23` (centres undefined) [Nadifloxacin] + CCN1C(=O)N(c2c(F)c(OC)cc(OC)c2F)Cc2cnc3[nH]c(CN4CCOCC4)cc3c21 [pemigatinib] the value was 0.931; for `Brc1ccc([C@H]2CN3CCSC3=N2)cc1` [(-)-p-Bromotetramisole Oxalate] + CCN1C(=O)N(c2c(F)c(OC)cc(OC)c2F)Cc2cnc3[nH]c(CN4CCOCC4)cc3c21 [pemigatinib], 0.993.
In the case of `C=CC(=O)N1CCC(Oc2cc3c(Nc4ccc(Cl)c(Cl)c4F)ncnc3cc2OC)CC1` [Poziotinib (HM781-36B)] + CCN1C(=O)N(c2c(F)c(OC)cc(OC)c2F)Cc2cnc3[nH]c(CN4CCOCC4)cc3c21 [pemigatinib], the cell viability is 0.542.
Turning to `Cc1c(Cc2ccc3ccccc3n2)c2cc(F)ccc2n1CC(=O)O` + CCN1C(=O)N(c2c(F)c(OC)cc(OC)c2F)Cc2cnc3[nH]c(CN4CCOCC4)cc3c21 [pemigatinib], the cell viability came out at 0.884.
As to `CN1CCN(C2=Nc3cc(Cl)ccc3Nc3ccccc32)CC1` [Clozapine] + CCN1C(=O)N(c2c(F)c(OC)cc(OC)c2F)Cc2cnc3[nH]c(CN4CCOCC4)cc3c21 [pemigatinib], the cell viability is 0.974.
For `CO[C@@H](C(=O)N1Cc2[nH]nc(NC(=O)c3ccc(N4CCN(C)CC4)cc3)c2C1)c1ccccc1` + CCN1C(=O)N(c2c(F)c(OC)cc(OC)c2F)Cc2cnc3[nH]c(CN4CCOCC4)cc3c21 [pemigatinib] the value was 0.554; for `C[C@H](NC(=O)[C@@H](O)c1cc(F)cc(F)c1)C(=O)N[C@@H]1C(=O)N(C)c2ccccc2-c2ccccc21` + CCN1C(=O)N(c2c(F)c(OC)cc(OC)c2F)Cc2cnc3[nH]c(CN4CCOCC4)cc3c21 [pemigatinib], 0.992; for `C[C@]12CC[C@@H]3c4ccc(O)cc4CC[C@H]3[C@@H]1CC[C@@H]2OC(=O)CCC1CCCC1` [Estradiol Cypionate] + CCN1C(=O)N(c2c(F)c(OC)cc(OC)c2F)Cc2cnc3[nH]c(CN4CCOCC4)cc3c21 [pemigatinib], 0.869.
As for `CC(C)N(CCCNC(=O)Nc1ccc(C(C)(C)C)cc1)C[C@H]1O[C@@H](n2ccc3c(N)ncnc32)[C@H](O)[C@@H]1O` + CCN1C(=O)N(c2c(F)c(OC)cc(OC)c2F)Cc2cnc3[nH]c(CN4CCOCC4)cc3c21 [pemigatinib], the cell viability was 0.914.
In the case of `CNC(CC(=O)O)C(=O)O` [NMDA (N-Methyl-D-aspartic acid)] + CCN1C(=O)N(c2c(F)c(OC)cc(OC)c2F)Cc2cnc3[nH]c(CN4CCOCC4)cc3c21 [pemigatinib], the cell viability amounted to 0.966.
As for `C[C@H](NC(=O)Cc1cc(F)cc(F)c1)C(=O)N[C@H](C(=O)OC(C)(C)C)c1ccccc1` + CCN1C(=O)N(c2c(F)c(OC)cc(OC)c2F)Cc2cnc3[nH]c(CN4CCOCC4)cc3c21 [pemigatinib], the cell viability came out at 1.02.
On to `Cc1cc(Nc2ccc(NC(=O)c3ccc(Nc4ccnc5ccccc45)cc3)cc2)nc(N)n1` + CCN1C(=O)N(c2c(F)c(OC)cc(OC)c2F)Cc2cnc3[nH]c(CN4CCOCC4)cc3c21 [pemigatinib], for which the cell viability amounted to 0.965.
For `CN1C2=CC(=O)/C(=N\NC(N)=O)C=C2CC1S(=O)(=O)O` (centres undefined) [Carbazochrome sodium sulfonate (AC-17)] + CCN1C(=O)N(c2c(F)c(OC)cc(OC)c2F)Cc2cnc3[nH]c(CN4CCOCC4)cc3c21 [pemigatinib] the value was 0.918.
On to `O=C1Cc2cc(CCN3CCN(c4nsc5ccccc45)CC3)c(Cl)cc2N1` [Ziprasidone HCl] + CCN1C(=O)N(c2c(F)c(OC)cc(OC)c2F)Cc2cnc3[nH]c(CN4CCOCC4)cc3c21 [pemigatinib], for which the cell viability was 0.956.
For `CC(C)/N=c1\cc2n(-c3ccc(Cl)cc3)c3ccccc3nc-2cc1Nc1ccc(Cl)cc1` [Clofazimine] + CCN1C(=O)N(c2c(F)c(OC)cc(OC)c2F)Cc2cnc3[nH]c(CN4CCOCC4)cc3c21 [pemigatinib] the value was 0.907; for `O=C(Cc1ccc(-c2ccc(OCCN3CCOCC3)cc2)cn1)NCc1ccccc1` + CCN1C(=O)N(c2c(F)c(OC)cc(OC)c2F)Cc2cnc3[nH]c(CN4CCOCC4)cc3c21 [pemigatinib], 0.233.
For `Nc1ncn([C@H]2C[C@H](O)[C@@H](CO)O2)c(=O)n1` [Decitabine] + CCN1C(=O)N(c2c(F)c(OC)cc(OC)c2F)Cc2cnc3[nH]c(CN4CCOCC4)cc3c21 [pemigatinib] the value was 0.838; for `O=c1cc(-c2ccc(O)c(O)c2)oc2cc(O)cc(O)c12` [Luteolin] + CCN1C(=O)N(c2c(F)c(OC)cc(OC)c2F)Cc2cnc3[nH]c(CN4CCOCC4)cc3c21 [pemigatinib], 1.01.
For `CC(=O)Nc1ccc(NC(=S)NC(=O)c2ccc(C(C)(C)C)cc2)cc1` [Tenovin-1] + CCN1C(=O)N(c2c(F)c(OC)cc(OC)c2F)Cc2cnc3[nH]c(CN4CCOCC4)cc3c21 [pemigatinib] the value was 0.987.
For `CCOc1cc(C(=O)N2CCC(N3CCN(C)CC3)CC2)ccc1Nc1ncc2c(n1)N(C1CCCC1)c1ccccc1C(=O)N2C` + CCN1C(=O)N(c2c(F)c(OC)cc(OC)c2F)Cc2cnc3[nH]c(CN4CCOCC4)cc3c21 [pemigatinib], the cell viability worked out at 0.958.
